Source: article PMC4336329 (PLoS ONE, 2015)
Among all 310,000 compounds or so, about 14,000 (4.5%) showed an effect of 50% or more. The effect is printed as a negative number. This is one part of the list.

molecular target: human ether-à-go-go-related gene (hERG) potassium channel (human, UniProt Q12809); assay: primary screen, population patch clamp on CHO cells stably expressing hERG
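Also: peak tail current of the secondary pulse compared with the same well before compound.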

human ether-à-go-go-related gene (hERG) potassium channel, sequence (Q12809 whole entry, looked up): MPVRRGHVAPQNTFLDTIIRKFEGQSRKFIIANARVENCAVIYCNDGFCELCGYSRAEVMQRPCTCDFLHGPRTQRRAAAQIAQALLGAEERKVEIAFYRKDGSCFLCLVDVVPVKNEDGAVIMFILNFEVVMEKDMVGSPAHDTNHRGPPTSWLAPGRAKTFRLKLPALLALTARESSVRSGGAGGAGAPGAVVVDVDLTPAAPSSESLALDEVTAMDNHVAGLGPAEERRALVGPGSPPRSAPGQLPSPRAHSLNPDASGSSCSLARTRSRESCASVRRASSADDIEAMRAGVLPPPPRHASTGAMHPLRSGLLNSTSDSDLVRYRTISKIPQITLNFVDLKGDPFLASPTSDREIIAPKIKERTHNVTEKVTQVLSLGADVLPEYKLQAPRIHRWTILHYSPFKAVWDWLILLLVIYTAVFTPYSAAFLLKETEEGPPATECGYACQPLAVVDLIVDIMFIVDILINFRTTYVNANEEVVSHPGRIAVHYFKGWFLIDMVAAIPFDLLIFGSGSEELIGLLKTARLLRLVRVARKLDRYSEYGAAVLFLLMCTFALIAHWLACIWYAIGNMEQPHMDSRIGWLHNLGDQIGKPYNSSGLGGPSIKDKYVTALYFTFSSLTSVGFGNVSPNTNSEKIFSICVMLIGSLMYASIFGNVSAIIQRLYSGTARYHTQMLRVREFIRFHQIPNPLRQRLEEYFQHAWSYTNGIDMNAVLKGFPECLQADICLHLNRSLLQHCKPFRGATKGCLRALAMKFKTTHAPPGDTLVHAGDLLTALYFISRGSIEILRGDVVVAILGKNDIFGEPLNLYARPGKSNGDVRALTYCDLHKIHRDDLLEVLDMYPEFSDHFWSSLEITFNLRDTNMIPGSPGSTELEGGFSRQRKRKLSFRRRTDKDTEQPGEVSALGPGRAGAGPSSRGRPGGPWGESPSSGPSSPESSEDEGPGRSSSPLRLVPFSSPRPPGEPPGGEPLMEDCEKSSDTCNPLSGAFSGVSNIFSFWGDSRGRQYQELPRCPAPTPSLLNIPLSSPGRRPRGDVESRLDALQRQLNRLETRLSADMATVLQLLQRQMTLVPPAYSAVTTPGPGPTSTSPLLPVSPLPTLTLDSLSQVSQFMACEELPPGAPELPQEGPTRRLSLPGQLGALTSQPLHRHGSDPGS

Compound | hERG current change (%, negative = inhibition) at 10uM [%]
COc1cccc(N2CCN(c3c(C#N)c(C(F)(F)F)nn3C)CC2)c1 | -12.6
COc1cccc(/C=N/NC(=O)c2c(-c3ccccc3)noc2C)c1OC | 11
Cc1ccc(CNC(=O)Cn2ccc3cc(S(=O)(=O)N4CCCCCC4)ccc32)cc1 | 15.5
COc1ccc(S(=O)(=O)NNC(=O)c2csc(-n3nc(C)cc3C(F)(F)F)n2)cc1 | 19.9
Cc1ccc(Nc2nnc(C)c3ccccc23)c(C)c1 | -16.4
CCN(CC)c1ccc(S(=O)(=O)Nc2cc(Cl)ccc2Cl)cc1NC(=S)NC(=O)C1CCCC1 | 10.3
C=CCn1c(SCC(C)=O)nc2scc(-c3ccc(C)o3)c2c1=O | 16.6
O=C(Cn1cnc2sc(-c3ccccc3)cc2c1=O)NCc1ccco1 | -3.75
CC(CCc1ccccc1)NC(=O)c1ccccc1 (centres unmarked) | 5.58
CC(=O)Nc1c2c(nn1-c1ccc(C)cc1C)CS(=O)C2 (centres unmarked) | 8.17
CCn1cc(S(=O)(=O)CC(=O)Nc2ccc3c(c2)OCO3)c2ccccc21 | 11.2
O=C(CN1CCN(S(=O)(=O)c2ccc(C(F)(F)F)cc2)CC1)N1CCNC1=O | -0.563
CCOC(=O)N1CCN(C(=O)COc2ccc3c(c2)C(=O)CC2(CCN(C(C)=O)CC2)O3)CC1 | -2.13
Cn1ncc(Cl)c1C(=O)N1CCc2ccccc21 | -13.9
CCCOc1ccc2oc(=O)c3c(c2c1)CCCN3C(=O)CN1CCCC(C(=O)OCC)C1 (centres unmarked) | -65.5
Cc1ccc(S(=O)(=O)N2CCOCC2)cc1NC(=O)COc1cccc(-n2cnnn2)c1 | -30.2
Cc1nn(C)cc1S(=O)(=O)NC1CCCC1 | 12.8
COc1ccc(-c2noc(N3CCC(C(=O)NCCCN4CCC(C)CC4)CC3)n2)cc1 | -49
CCOc1ccc(C2NC(=O)NC(C)=C2[N+](=O)[O-])cc1OC (centres unmarked) | 24.6
CC(C)c1nc2sc(C(=O)O)c(N)c2c2c1CCCC2 | 9.9
CC12CCC(C(=Nc3ccc(N=C4C(=O)C5(C)CCC4C5(C)C)cc3)C1=O)C2(C)C | -5.24
COc1ccc(NC(=O)c2ccc(S(=O)(=O)N(C)c3ccccc3)cc2)cn1 | -29.4

Compound | hERG current change (%, negative = inhibition) at 10uM [%]
Cc1ccccc1C(=O)c1cccn1CC(=O)N1CCCCCC1 | 3.97
COc1ccc(C2=NO[C@@H]3[C@@H]4C[C@@H]([C@H]5C(=O)N(c6ccc7c(c6)OCO7)C(=O)[C@@H]45)[C@H]23)cc1OC | -11.8
CCN1CCN(C(=O)NC(c2ccc(C)c(F)c2)C(Cl)Cl)CC1 (centres unmarked) | -12.8
CN(C)c1ccc(/C=C/c2ccc3ccccc3n2)cc1 | 19.3
O=C(Nc1cccc2ncccc12)c1cccnc1 | 14.5
CCOC(=O)N1CCc2c(sc3c2c(=O)n(Cc2ccccc2)c(=O)n3CC(=O)NCCOC)C1 | -19.1
O=C(Nc1ccccc1)C1C2CCCCC21 (centres unmarked) | -1.94
COC(=O)[C@@]12CCCCN1[C@H](c1ccc(SC3CCCCC3)c(OC)c1)[C@@H]1C(=O)N(C)C(=O)[C@@H]12.O=C(O)C(F)(F)F | 19.8
COc1cccc(-n2c(Cn3nc(C(F)F)cc3C(F)F)n[nH]c2=S)c1 | 6.13
CC1CCN(CCCNC(=O)C2CCC(CNS(=O)(=O)c3cccc4nsnc34)CC2)CC1 (centres unmarked) | 2.56
CC(C)COc1ccc(S(=O)(=O)n2cc(F)c(=O)[nH]c2=O)cc1 | -0.0681
NC(=O)C1CCN(C(=O)CCSCc2ccc(Cl)c(Cl)c2)CC1 | -13.3
CCN(CC)c1ccc(-n2c(C)c(C(C)=O)c(C(C)=O)c2C)cc1 | 9.56
COc1ccccc1N(C)S(=O)(=O)c1ccc(Cl)c(C(=O)N2CCC(C(N)=O)CC2)c1 | 4.23
O=C(OCc1nnc(-c2ccccc2)o1)c1cc(F)c(F)cc1Cl | -8.47
COc1ccc(C(C(=O)NCC2CCCO2)N(Cc2cccs2)C(=O)c2snc(C(N)=O)c2N)cc1 (centres unmarked) | 17.1
CC(=O)Nc1ccc(Nc2ncnc3ccccc23)cc1 | 10.9
CCOC(=O)C1CCN(C(=S)Nc2ccc(C)cc2)CC1 | 24.8
O=c1[nH]c(=S)c2c(n1-c1ccccc1)CCC2 | 9.25
CCOC(=O)c1ccc(CNC(=O)C2CCC(=O)N(CCc3ccccc3)C2)o1 (centres unmarked) | -8.45
COc1ccc(N2CCN(CC(O)COC(C)(C)C)CC2)cc1.O=C(O)C(=O)O (centres unmarked) | 10.2
Cc1cc([N+](=O)[O-])nn1CCCC(=O)Nc1sc2c(c1C(N)=O)CCC(C)C2 (centres unmarked) | -12.1
